# From ChEMBL document CHEMBL4888484, “Replenishing the malaria drug discovery pipeline: Screening and hit evaluation of the MMV Hit Generation Library 1 (HGL1) against asexual blood stage Plasmodium falciparum ,using a nano luciferase reporter read-out” (2022)
# In all, about 150,000 compounds went through this assay and about 540 (0.36%) showed an effect of 50% or more. The list shows a part of the results.
# Test system: Plasmodium falciparum
# Test: Primary screen in NF54 nanoGlo assay, in single point, at 2uM, 72h; a lower Z score goes with more inhibition
# Assay type: functional, Erythrocyte
# Conditions: timepoint 72 hour
SMILES,% Inhibition [%],Z score
COc1ccccc1C(=O)Nc1c(C(=O)Nc2ccc3c(c2)OCO3)oc2ccccc12,-3,0.49
CC(C)Cc1noc(CN(C)C(=O)Cn2sc3ccccc3c2=O)n1,3,-0.31
CC(C)S(=O)(=O)N(C)C(=O)c1cccc(CC#N)c1,-8,0.84
CCOc1cccc(CN(C)c2cc([C@H]3C[C@H](N)C3)nc(COC)n2)c1,-10,1.72
CCN1CCC[C@H](CN(C)S(=O)(=O)c2cc(-c3cc(C(F)(F)F)on3)oc2C)C1,-21,2.16
Cc1nn(CC(C)C)c(C)c1S(=O)(=O)NC(=O)C(C)C,-5,0.66
CC(Cc1cccc(F)c1)C(=O)N1CCCCC1C(=O)N1CCOCC1 (stereo unspecified),-9,1.34
CCc1cc(C(=O)Nc2ccccc2F)c2c(C3CC3)nn(-c3ccc(F)cc3)c2n1,6,-0.97
COC[C@H]1CCN(C(=O)CCS(=O)(=O)c2ccccc2)C1,-13,2.23
C[C@@H](C(=O)N1Cc2cccnc2C1)c1ccccc1,-2,0.22
O=C(NCCc1cccc(Cl)c1)N1CC[C@@H](O)[C@@H](O)C1,-2,0.3
CN(C)C(=O)CC1CCN(Cc2cc(-c3ccccc3)on2)CC1,-6,1.31
O=S(=O)(c1ccc(Br)cc1)N1CCOC1,-4,0.71
CCCCN1C(=O)CN(C2CCC(C)CC2)C(=O)[C@@H]1c1ccc(OC(C)C)c(OC)c1 (stereo partly specified),6,-0.88
CCc1ccc([C@@H]2CCCN2Cc2nnc(C(C)C)o2)o1,1,-0.1
N#CCCN(C(=O)COC(=O)C1CCCCC1C(=O)N1CCc2ccccc21)c1ccccc1 (stereo unspecified),-8,1.4
Cc1nc(CN(C)Cc2cccn2-c2ccc(Cl)cn2)no1,-13,1.6
CC(C)Cn1c(-c2ccc(C#N)cc2)nnc1N1CCN(C(C)C)CC1,-4,0.69
OCc1cccc(NCc2ccc(OC(F)(F)[C@H](F)C(F)(F)F)cc2)n1,-10,1.75
C[C@H](CC(=O)O)CC(=O)NCCc1ccccc1,27,-3.05
CCCN(CCC)C(=O)c1oc2ccccc2c1NC(=O)C1CCCCC1,5,-0.51

SMILES,% Inhibition [%],Z score
O=C(N[C@H](C(=O)O)C1CC1)c1nc(C2CC2)n(-c2ccccc2)n1,6,-0.85
Cc1c(NC(=O)CN(C)CCc2ccccn2)cnn1C,-5,0.83
Cc1c(C(=O)C2CC2)cnc2cc3c(cc12)OCO3,-1,0.13
C[C@@H](C(=O)NC(N)=O)N(C)Cc1ccc(F)c(F)c1,-3,0.54
Cc1noc(C)c1S(=O)(=O)N(C)C[C@H]1Cc2ccccc2CO1,5,-0.62
NC(=O)C1(NC(=O)C2Cc3ccccc3C2)CCCC1,4,-0.4
CCN1C(=O)c2cc(NC(=O)CCc3ccccc3)ccc2Oc2ccccc21,-11,1.92
OCc1cc2n(n1)CCN(c1cc(C(F)(F)F)nc(N3CCCC3)n1)C2,-2,0.42
Cc1nnc2ccc(N3CCCN(S(=O)(=O)c4ccc5c(c4)CCC(=O)N5)CC3)nn12,-13,1.52
O=C(Nc1cccc(-n2cncn2)c1)N1CCC(F)(F)CC1,-24,2.2
C[C@](O)(CNC(=O)Nc1nc2n(n1)CCCC2)c1cccc(F)c1,-4,0.73
O=C(NCc1ccc(-c2ccco2)o1)NC1CCCC1,7,-0.99
N#Cc1cc2c([nH]c1=O)CCN(C(=O)c1nc3ccccc3s1)C2,-9,1.42
O=C(Nc1ccccc1)C1C2CCC(C2)N1C(=O)c1ccccc1 (stereo unspecified),11,-1.23
CCOC(=O)N1CCN(c2nc(CN3CCCC[C@@H]3COC)nc3c(C)cccc23)CC1,-4,0.56
Cc1nn2cnnc2c(C)c1Cc1c(F)cccc1Cl,-5,0.71
O=c1[nH]c(CCN2CCc3c(Cl)cc(Cl)cc3C2)nc2ccccc12,4,-0.76
Cc1ccc(CNC(=O)[C@H]2CC2(C)C)nc1C,0,-0.05
Cc1ccc(CN2[C@H]3C[C@H]4CCC3(CS2(=O)=O)C4(C)C)c(C)n1,-1,0.1
O=C(Cn1c(=O)ccc2cc(S(=O)(=O)N3CCCC3)ccc21)N1CCN(C(=O)c2ccco2)CC1,-15,1.82
CN(Cc1ccc(Cl)s1)C(=O)c1ccc(N(C)C)cc1,-10,1.92

SMILES,% Inhibition [%],Z score
COc1ccccc1N1CCN(C(=O)c2ccc(C#CC3(O)CCCCC3)cc2)CC1,-21,3.34
CC(C)c1nc(CN2CCC(n3ccnc3)CC2)n[nH]1,-10,1.46
O=S1(=O)CCC(CCNCc2ccsc2C(F)(F)F)CC1,-14,1.41
O=C(c1cccc(CN2CCS(=O)(=O)CC2)c1)N1CC2(CC2)c2ccccc21,-17,2.69
C[C@H]1C(=O)N(C)C[C@@H](CNC(=O)Nc2ccccc2C(F)(F)F)N1Cc1cccnc1,-13,1.9
O=C(c1ccoc1)N1CCc2n[nH]c(=O)cc2C1,-10,1.14
CN1CCN(C(=O)CCc2ccc(-c3ccccc3)cc2)CC1=O,-10,1.7
COc1cn(CC(=O)Nc2cccc3ccccc23)c(CN2CCCCC2)cc1=O,-6,1.08
O=C(CC[C@H]1CCCN(Cc2ccc3c(c2)OCCO3)C1)N1CCOCC1,-11,2.13
CCCc1cc(CN(C)C(=O)CC[C@@H]2NC(=O)NC2=O)n[nH]1,-3,0.39
COc1c(C(=O)Nc2ccc3ccccc3c2)c(C)nn1C,26,-2.97
O=C(Nc1ccc(F)c(F)c1)N1CCN(CCc2cnccn2)CC1,-8,1.44
CC(C(=O)NC[C@H]1CCCOC1)=C1CCC1,-10,1.05
CC(C)[C@H](NS(=O)(=O)CC1CCCCC1)c1ccccc1,-12,1.23
O=C(c1cc(Br)ccc1Cl)N1CC(Nc2cccnn2)C1,-15,1.8
COc1ccc(F)cc1-c1nc2c([nH]1)c(C)nn2Cc1ccccc1,-10,1.54
O=C(Cc1ccccc1Cl)Nc1nnc([C@H]2CC(=O)N(c3ccc(F)cc3)C2)o1,7,-1.03
COc1cc(-c2nnc(COc3ccc4ccccc4c3)o2)cc(OC)c1OC,-7,0.93
Cc1cc(C#N)nc(N2CC(C)(C)[C@@H]2C(C)C)n1,4,-0.51
Oc1ccccc1-c1nc2cnccn2c1NC1CCCC1,-9,1.34
Cc1noc(C)c1-c1nc2cccc(Cl)c2[nH]1,-12,2.22

SMILES,% Inhibition [%],Z score
CCc1noc(C)c1C(=O)N1CC[C@H]2[C@H](CCC(=O)N2CCCO)C1,-11,1.88
CCN1CCCN(Cc2cc3ccccc3[nH]c2=O)CC1,35,-3.91
O=S(=O)(NCc1ccccc1)N1CCC[C@@H]1Cn1cccn1,10,-0.9
Cc1onc(-c2ccccn2)c1C(=O)Nc1cc(CC2CCCCC2)n[nH]1,-2,0.31
Cc1nc(C)c(C(=O)N2CCO[C@H](C(=O)Nc3ccccc3F)C2)s1,-17,1.71
CCCN1CC2(CCN(C(=O)c3n[nH]c4c3CCCC4)CC2)C[C@H]1C(=O)O,-10,1.19
O=C(c1cccnc1)N1CC[C@H](c2nnc(-c3ccncc3)o2)C1,32,-3.58
COc1ccccc1N(C(=O)COc1cccc(Br)c1)S(=O)(=O)c1ccc(NC(=O)COc2cccc(Br)c2)cc1,-2,0.39
O=C(NCc1cccnc1)c1coc(CN(Cc2ccccc2)Cc2ccccc2C(F)(F)F)n1,0,0.02
CN(Cc1ccc2cc(Cl)ccc2n1)C[C@H]1CCCN(CCO)C1,-9,1.24
Cc1ccc(F)cc1NC(=O)Cn1cc(S(=O)(=O)N2CCCCCC2)ccc1=O,-10,1.98
Cc1cccc(N(C)C(=O)[C@H]2CCc3nnnn3CC2)c1,-5,1
C[C@@H](CCCCNC(=O)c1cc[nH]n1)NC(=O)c1cc[nH]n1,-9,1.75
C[C@@H]1CC[C@H](C(=O)O)CN1C(=O)OC(C)(C)C,-6,0.97
COc1ccccc1S(=O)(=O)N1CCC(Oc2cc(C)n(C)c(=O)c2)CC1,-10,1.73
Cc1cc(C)n(CCC(=O)N2CCC3(CC2)C[C@@H](C(=O)NCc2ccccn2)N(C)C3)n1,-14,1.77
CCCc1nnsc1C(=O)N1CC[C@@]2(CCCN(CC3CC3)C2=O)C1,-10,1.84
Cc1ccc(F)c(S(=O)(=O)N2CCC3(CC2)CC(=O)N(CC(C)C)C3)c1,-8,1.3
CCOC(=O)c1n[nH]cc1-c1c(-c2ccccc2)ncn1Cc1cc(C)n[nH]1,-13,1.63
OC1=Nc2c(ncn2-c2cccnc2)[C@@H](c2ccc(F)c(F)c2)C1,0,-0.05
